From the supplement of paper PMC9151546
Most values come without repeats; read them as rough.

What was measured:
CHO-K1 [1] = assay: micronucleus frequency (% of nucleated events); higher = more micronuclei (genotoxic)
CHO-K1 [2] = assay: hypodiploid nuclei frequency (% of nucleated events); higher = more hypodiploid events (aneugenic)
Method: (§1)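 Flow-cytometric in vitro micronucleus assay (Litron MicroFlow) in CHO-K1 cells in 96-well plates, 19 concentrations (4.5-200 µM, n=1 per concentration). Without S9, cells were exposed for 24 h and sampled at 48 h. With Aroclor 1254-induced rat liver S9, cells were exposed for 3-4 h and sampled at 27-28 h. Read-outs are %MN and %hypodiploid nuclei relative to nucleated events, and relative survival as the nuclei-to-bead ratio versus the 1% DMSO vehicle control (x100).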

CHO-K1 [3] = assay: relative survival (nuclei to bead ratio vs DMSO control) (% of vehicle control); higher = more surviving cells
Method: as §1
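For hypodiploid nuclei frequency (% of nucleated events) in this document: hypodiploid nuclei gated on a flow cytometer with 488 nm excitation after SYTOX Green staining, cultures at 37 °C, positive controls vinblastine without S9 and cyclophosphamide with S9.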
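For micronucleus frequency (% of nucleated events) in this document: cells lysed with nuclei stained by SYTOX Green, then micronucleus-gated events counted against nucleated events by flow cytometry with 488 nm excitation.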
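For relative survival (nuclei to bead ratio vs DMSO control) in this document: Lysed-cell nuclei stained with SYTOX Green and counted against counting beads by flow cytometry at 488 nm excitation, with vinblastine (no S9) and cyclophosphamide (plus S9) as positive controls.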

OC1CCCCC1 [Cyclohexanol]
Settings	hypodiploid nuclei frequency, CHO-K1 [2] [%]	micronucleus frequency, CHO-K1 [1] [%]	relative survival, CHO-K1 [3]
concentration: 4.55 (µM), S9 metabolic activation: with S9, exposure time: 3-4 hours	0.2	1.26	110
concentration: 4.55 (µM), S9 metabolic activation: without S9, exposure time: 24 hours	0.38	1.5	104
concentration: 5.69 (µM), S9 metabolic activation: with S9, exposure time: 3-4 hours	0.24	1.26	108
concentration: 5.69 (µM), S9 metabolic activation: without S9, exposure time: 24 hours	0.4	1.82	108
concentration: 7.11 (µM), S9 metabolic activation: with S9, exposure time: 3-4 hours	0.2	1.1	112
concentration: 7.11 (µM), S9 metabolic activation: without S9, exposure time: 24 hours	0.46	1.98	104
concentration: 8.88 (µM), S9 metabolic activation: with S9, exposure time: 3-4 hours	0.38	1.2	106
concentration: 8.88 (µM), S9 metabolic activation: without S9, exposure time: 24 hours	0.46	1.72	119
concentration: 11.1 (µM), S9 metabolic activation: with S9, exposure time: 3-4 hours	0.2	1.42	115
concentration: 11.1 (µM), S9 metabolic activation: without S9, exposure time: 24 hours	0.68	1.3	106
concentration: 13.9 (µM), S9 metabolic activation: with S9, exposure time: 3-4 hours	0.28	1.24	100
concentration: 13.9 (µM), S9 metabolic activation: without S9, exposure time: 24 hours	0.52	1.7	114
concentration: 17.4 (µM), S9 metabolic activation: with S9, exposure time: 3-4 hours	0.12	1.06	130
concentration: 17.4 (µM), S9 metabolic activation: without S9, exposure time: 24 hours	0.36	2.06	91
concentration: 21.7 (µM), S9 metabolic activation: with S9, exposure time: 3-4 hours	0.18	1.58	139
concentration: 21.7 (µM), S9 metabolic activation: without S9, exposure time: 24 hours	0.66	2.3	101
concentration: 27.1 (µM), S9 metabolic activation: with S9, exposure time: 3-4 hours	0.18	1.32	103
concentration: 27.1 (µM), S9 metabolic activation: without S9, exposure time: 24 hours	0.32	1.58	98
concentration: 33.9 (µM), S9 metabolic activation: with S9, exposure time: 3-4 hours	0.38	1.02	110
concentration: 33.9 (µM), S9 metabolic activation: without S9, exposure time: 24 hours	0.48	1.44	92.8
concentration: 42.4 (µM), S9 metabolic activation: with S9, exposure time: 3-4 hours	0.18	1.42	127
concentration: 42.4 (µM), S9 metabolic activation: without S9, exposure time: 24 hours	0.54	1.32	103
concentration: 53 (µM), S9 metabolic activation: with S9, exposure time: 3-4 hours	0.2	1.28	104
concentration: 53 (µM), S9 metabolic activation: without S9, exposure time: 24 hours	0.36	2.1	146
concentration: 66.2 (µM), S9 metabolic activation: with S9, exposure time: 3-4 hours	0.28	1.24	104
concentration: 66.2 (µM), S9 metabolic activation: without S9, exposure time: 24 hours	0.72	2.46	128
concentration: 82.7 (µM), S9 metabolic activation: with S9, exposure time: 3-4 hours	0.4	1.82	96.3
concentration: 82.7 (µM), S9 metabolic activation: without S9, exposure time: 24 hours	0.86	2.14	108
concentration: 103 (µM), S9 metabolic activation: with S9, exposure time: 3-4 hours	0.28	1.18	100
concentration: 103 (µM), S9 metabolic activation: without S9, exposure time: 24 hours	0.6	2.56	130
concentration: 129 (µM), S9 metabolic activation: with S9, exposure time: 3-4 hours	0.24	1.28	79.7
concentration: 129 (µM), S9 metabolic activation: without S9, exposure time: 24 hours	0.74	1.46	103
concentration: 162 (µM), S9 metabolic activation: with S9, exposure time: 3-4 hours	0.12	1.6	89.9
concentration: 162 (µM), S9 metabolic activation: without S9, exposure time: 24 hours	0.72	2.26	108
concentration: 202 (µM), S9 metabolic activation: with S9, exposure time: 3-4 hours	0.2	1.18	104
concentration: 202 (µM), S9 metabolic activation: without S9, exposure time: 24 hours	0.92	2.6	84
